We go through 57 compounds from PubChem BioAssay (NCI).

SMILES strings stand for the structures.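 Exposure lasted 48 hours, with cells grown in 96-well plates and compounds tested at five concentrations. At the GI50, growth is halved. At the TGI there is no net growth.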

The subject of the assay is NCI-H322M lung. Description: NCI-60 cell line screen, 48 h.
Consider `COc1ccc(N=C2C(=Nc3ccc(OC)cc3)N(c3ccccc3[N+](=O)[O-])C(=S)N2c2ccc(OC)cc2)cc1`, for which the TGI was more than 100 µM.

On to `CN(C)CCOc1cccc(NC2=C(Cl)C(=O)C(Nc3cccc(OCCN(C)C)c3)=C(Cl)C2=O)c1`, for which the GI50 was 3.41 µM and the TGI amounted to 13.3 µM.

As for `CSc1ccc2c(c1)C(=O)c1c-2n(CCCN=[N+]=[N-])c(=O)c2cc([N+](=O)[O-])ccc12`, the GI50 was more than 26.9 µM and the TGI is more than 100 µM.

The compound `NS(=O)(=O)c1ccc(NCc2cnc3ccccc3c2)cc1` gave a TGI of more than 100 µM.

In turn, `O=c1[nH]c(C2CCCCC2)nc2cc(Cl)ccc12` displayed a TGI of more than 100 µM.

`CC1=C/C(=C(/c2ccc(O)c(C)c2)c2ccccc2C(=O)O)C=CC1=O` registered a TGI of 34.6 µM.

Turning to `CC(C)(Cc1ccccc1)Cc1cc(O)ccc1O`, the TGI was more than 100 µM.

For the compound `COc1ccc(C2S/C(=C\c3cccc([N+](=O)[O-])c3)C(=O)N2NC(=O)Cc2ccccc2)cc1` (stereo unspecified), the TGI was more than 100 µM.

The compound `COC(=O)c1cc(O)ccc1NC(=O)c1ccc(O)cc1` yielded a TGI of more than 100 µM.

`O=S(=O)(c1ccccc1)C1CN(Cc2ccccc2)CCN(Cc2ccccc2)C1` displayed a TGI of more than 100 µM.

`N=C(N)c1ccc(-c2ccc(-c3ccc(C(=N)N)cc3)o2)cc1`: the TGI is more than 100 µM.

`O=C(Nc1ccc(F)cc1)c1cc2ccc(O)cc2oc1=Nc1cccc(F)c1` displayed a TGI of 68.6 µM.

As to `COC1=CC(=O)C2[C@H]3Cc4ccccc4[C@H]3C2(C)C1=O` (stereo partly specified), the TGI was more than 100 µM.

As to `O=C1/C(=C/c2cccc3ccccc23)Cc2ccccc21`, the TGI was more than 100 µM.

Take `Clc1cccc(Cc2cn3cc(-c4ccccc4)nc3s2)c1`: the GI50 was 13.3 µM and the TGI was more than 100 µM.

Consider `COc1cc(OC)nc(NC(=O)NS(=O)(=O)c2cccc3ncn(C)c(=O)c23)n1`, for which the TGI is more than 100 µM.

In the case of `CCOC(=O)C(SCCO)C(C(=O)OCC)n1cc(C)c(=O)[nH]c1=O` (stereo unspecified), the TGI is more than 100 µM.

`CO/N=C/c1c(-c2ccc(Cl)cc2)c(/C=N/OC)n2c1sc1ccccc12`: the TGI is more than 100 µM.

Regarding `CN(C)CC1CN(C(=O)Nc2ccccc2)C(=N)O1` (stereo unspecified), the TGI was more than 100 µM.

`C(=N/Nc1ccccn1)/c1cccnc1` gave a TGI of more than 100 µM.

In turn, `CC(C)=CCC/C(C)=C/CC/C(C)=C/CC/C(C=O)=C/CC/C(C)=C\CC/C(C)=C/CC/C(C)=C/CC/C(C)=C/CC1=CC(=O)C=CC1=O` displayed a TGI of more than 100 µM.

In turn, `O=C1CSc2ccncc2N1` returned a TGI of more than 100 µM.

For `COc1ccc2oc(-c3ccc(Cl)cc3)c(N3CCN(C)CC3)c2c1`, the GI50 is 2.71 µM and the TGI was 9.15 µM.

For `O=C1CCC2(c3ccc(F)cc3)Nc3ncncc3N12` (stereo unspecified), the TGI is more than 10 µM.

Compound `Cc1ccccc1C(C#N)/C(=N/NC(=O)C(=O)NN)C(=O)Nc1cccc(C(F)(F)F)c1` (stereo unspecified) had a TGI of more than 100 µM.

With `Cc1ccc(S(=O)(=O)C2=C3C(=C(c4ccccc4)c4ccccc43)CN(S(=O)(=O)c3ccc(C)cc3)C2)cc1`, the GI50 was more than 100 µM and the TGI is more than 100 µM.

In the case of `COC(C(=O)[C@@H](O)[C@@H](C)O)[C@@H]1Cc2cc3cc(O[C@H]4C[C@@H](O[C@H]5C[C@@H](O)[C@H](O)C(C)O5)[C@H](O)C(C)O4)c(C)c(O)c3c(O)c2C(=O)[C@H]1O[C@H]1C[C@@H](O[C@H]2C[C@@H](O[C@H]3C[C@@H](O)[C@@H](O)C(C)O3)[C@@H](O)C(C)O2)[C@H](O)C(C)O1` (stereo partly specified), the GI50 is 0.209 µM and the TGI is more than 32.5 µM.

`O=C(Cc1nc2ccccc2s1)NC12CC3CC(CC(C3)C1)C2` came in with a TGI of more than 100 µM.

Turning to `O=C(Nc1cccc2ccccc12)c1cc2ccccc2cc1O`, the GI50 is 2.39 µM and the TGI amounted to 6.77 µM.

Consider `NNc1nc(-c2ccccn2)nc2sc3c(c12)CCCCCC3`, for which the GI50 is 5.36 µM and the TGI is 87.3 µM.

`COc1ccc(C2SC(C)C(=O)N2NC(=O)C(O)c2ccccc2)cc1` (stereo unspecified): the GI50 is 51.4 µM and the TGI is more than 100 µM.

Turning to `COc1cc(CNC(=O)CCCCCCCCCCSSCCCCCCCCCCC(=O)NCc2ccc(O)c(OC)c2)ccc1O`, the TGI is more than 10 µM.

As to `Cc1cc2nc3c(C#N)c(-c4ccccc4)cc(Nc4cccc(C(F)(F)F)c4)n3c2cc1C`, the TGI came to 30.2 µM.

As to `Cn1c(-c2ccccc2)c/c(=N\NS(C)(=O)=O)c2cc(S(=O)(=O)O)ccc21`, the TGI was more than 100 µM.

Consider `Cc1cc(Cl)ccc1Nc1nc(C(F)(F)F)ccc1C(=O)N/N=C/c1c(Cl)cccc1Cl`, for which the GI50 is 0.212 µM and the TGI was 0.873 µM.

In turn, `Nc1nc(Cl)nc2c1ncn2C1CCC(CO)O1` (stereo unspecified) yielded a TGI of more than 100 µM.

As for `N=c1c2ccccc2nc2oc3ccc(Cl)cc3n12`, the TGI was more than 100 µM.

For the compound `CC(=O)O[C@H]1C(=O)[C@@]2(C)[C@H]([C@H](OC(=O)c3ccncc3)[C@]3(O)C[C@H](OC(=O)[C@H](O)[C@@H](NC(=O)c4ccccc4)c4ccccc4)C(C)=C1C3(C)C)[C@]1(OC(C)=O)CO[C@@H]1C[C@@H]2O`, the TGI was more than 25 µM.

On to `N#C/C(N)=C(\C#N)N=CNc1ccccc1N`, for which the TGI is more than 100 µM.

For the compound `N=C(N)c1ccc(-c2ccc(-c3ccco3)o2)cc1F`, the GI50 is 2.1 µM and the TGI amounted to 5.73 µM.

For the compound `CCC(C)(C)c1ccc(Oc2cccc(C(=O)O)c2)cc1`, the TGI was more than 100 µM.

On to `C#Cc1ccc(-n2c(/C=C/c3ccc4ccccc4n3)nc3ncccc3c2=O)cc1`, for which the GI50 was 0.87 µM and the TGI was 2.73 µM.

Regarding `CO[C@H]1C[C@H](O[C@H]2CC[C@]3(C=O)[C@H]4CC[C@]5(C)[C@@H](C6=CC(=O)OC6)CC[C@]5(O)[C@@H]4CC[C@]3(O)C2)O[C@H](C)[C@H]1O[C@@H]1O[C@H](CO[C@@H]2O[C@H](CO)[C@@H](O)[C@H](O)[C@H]2O)[C@@H](O)[C@H](O)[C@H]1O`, the TGI is 0.189 µM.

Take `CCCNNC(=O)c1ccc(CNC(=O)/C=C/c2ccccc2)cc1`: the GI50 was 0.212 µM and the TGI was 3.75 µM.

In turn, `CC(C)(C)C1=NN=C2c3ccccc3C(=O)C21` (stereo unspecified) returned a TGI of more than 100 µM.

For the compound `N=C(N)c1ccc(-c2ccc(-c3cc(Cl)cc(Cl)c3)s2)nc1`, the GI50 is 1.62 µM and the TGI came to 2.99 µM.

As to `COc1cccc(-c2cc(NCc3ccc4c(c3)OCO4)nc(N)n2)c1`, the GI50 is 2.43 µM and the TGI came out at 25.6 µM.

The compound `Cn1c(C2CC(C)(C)c3c2c2ccccc2n3C)cc2ccccc21` (stereo unspecified) came in with a TGI of more than 304 µM.

Turning to `COc1ccc(OC)c2c3c(ncc12)-c1cc2c(cc1C3)OCO2`, the GI50 was more than 100 µM and the TGI was more than 100 µM.

Regarding `CCOC(=O)c1nc2ccc(C(F)(F)F)cc2nc1Nc1ccc(OC)c(OC)c1`, the TGI was more than 100 µM.

In turn, `COc1ccc2c(c1)N(CCC1CCCCN1C)c1ccccc1S2` (stereo unspecified) registered a TGI of 28.1 µM.

With `CCN(CC)CCCC(C)Nc1ccnc2cc(Cl)c(SCc3ccccc3)cc12` (stereo unspecified), the GI50 was 2.25 µM and the TGI was determined as 6.31 µM.

For the compound `C=C1CCC2C(C)(CO)C(O)CCC2(C)C1CC(O)C1=CCOC1=O` (stereo unspecified), the TGI is more than 100 µM.

Compound `N=C1N=Nc2nc(C3(c4nc5n(c4O)C(=N)N=N5)Cc4ccccc4C3=O)c(O)n21` (stereo unspecified) registered a TGI of more than 100 µM.

Turning to `COc1ccc(/C=C2\CCCC3=C2N=C2SC=NN2C3c2ccc(OC)c(OC)c2)cc1OC` (stereo unspecified), the GI50 was 83.2 µM and the TGI is more than 100 µM.

With `Cc1cc(-c2ccc(Cl)cc2)c(C#N)c(=S)n1C1OC(CO)C(O)C(O)C1O` (stereo unspecified), the TGI was more than 100 µM.

As for `Cc1cccc2c(=O)c3c(sc12)c(NCCN)nc1ccccc13`, the GI50 was 0.956 µM and the TGI worked out at 2.27 µM.
